Hit rate of the full screen: of about 48,000 compounds, about 550 (1.1%) were called active. Roughly 4% stayed inconclusive and do not appear here. Rule as the data show it: active = potency below about 15 µM; inconclusive = mostly about 16 µM to 33 µM; inactive = weaker than that. The list shows a part of the results.
Each compound was assayed against Lysosomal acid glucosylceramidase (Homo sapiens) (UniProt P04062) (assay: Glucocerebrosidase). Conditions: purified enzyme, resorufin glucoside fluorescence (screen aimed at inhibitors), 20 min.
Outline: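 Normal human glucocerebrosidase (0.2 nM final) was assayed with resorufin β-D-glucopyranoside (30 uM final) in 50mM citric acid/KH2PO4, 10mM sodium taurocholate, 0.01% tween-20, pH 5.9. Compounds were titrated; fluorescence (Ex 548, Em 600) read after 20 min at RT.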
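Also: the screen sought inhibitors.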
Potency is read from the fitted curve at half-maximal effect.

UniProt P04062, sequence (P04062 whole entry, looked up): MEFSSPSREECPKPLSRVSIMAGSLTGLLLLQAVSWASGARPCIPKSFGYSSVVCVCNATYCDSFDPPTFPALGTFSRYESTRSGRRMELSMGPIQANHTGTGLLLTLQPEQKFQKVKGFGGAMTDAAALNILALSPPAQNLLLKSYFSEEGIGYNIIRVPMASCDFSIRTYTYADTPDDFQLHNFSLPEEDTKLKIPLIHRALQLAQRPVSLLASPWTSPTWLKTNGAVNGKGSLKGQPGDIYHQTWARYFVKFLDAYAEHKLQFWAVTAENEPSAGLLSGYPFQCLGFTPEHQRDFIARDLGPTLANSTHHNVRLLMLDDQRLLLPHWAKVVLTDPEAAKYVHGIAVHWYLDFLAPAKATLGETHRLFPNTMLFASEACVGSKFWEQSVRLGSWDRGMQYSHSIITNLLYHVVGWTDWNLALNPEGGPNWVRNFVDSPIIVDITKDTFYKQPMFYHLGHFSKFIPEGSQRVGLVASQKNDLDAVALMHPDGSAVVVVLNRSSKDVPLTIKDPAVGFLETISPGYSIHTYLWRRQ

Potency, inactive:
CC(=O)Nc1nc(CCC(C)C)cc2c1c(=O)oc1ccccc12 > 76.9 µM
Cc1sc2ncnc(OCC(=O)NCc3cccs3)c2c1C > 76.9 µM
O=C(c1ccccc1C(F)(F)F)N1CCN(S(=O)(=O)c2ccccc2)CC1 > 76.9 µM
Cc1ccc(N(C(C)C(=O)N2CCCCC2)S(C)(=O)=O)cc1C (stereo unspecified) > 76.9 µM
N#Cc1c(N)c(C(=O)c2ccccc2)n2c1CCCC2 > 76.9 µM
O=C(NCCc1ccccc1)C1CCN(c2nc3ccccc3o2)CC1 > 76.9 µM
Cc1cc(S(=O)(=O)NC2CCCC2)ccc1F > 76.9 µM
Cc1ccc(NC(=O)CN(C)S(=O)(=O)c2cccc3nsnc23)cc1 > 76.9 µM
O=C(NC1(C(=O)NC2CCCC2)CCCCC1)c1ccc2c(c1)OCO2 > 76.9 µM
CSc1ccc(S(=O)(=O)NCc2ccc(Cl)cc2)cc1 > 76.9 µM
Cn1c(=O)c2c(nc(NCc3ccc4c(c3)OCO4)n2C)n(C)c1=O > 76.9 µM
C=CCn1c(=O)c2ccccc2n2c(SCC(=O)/C(C#N)=C(\C)N)nnc12 > 76.9 µM
O=C(c1ccco1)N(Cc1nc2ccccc2c(=O)[nH]1)C1CCCC1 > 76.9 µM
Cc1nc(SC2CC(=O)N(c3ccccc3)C2=O)nc2c1CCCC2 (stereo unspecified) > 76.9 µM
Cc1cc(C)n(S(=O)(=O)c2cc(C)c(C)cc2C)n1 > 76.9 µM
O=C(CSc1nnc(-c2ccccc2O)o1)N1CCc2ccccc2C1 > 76.9 µM
CCOc1ccccc1CN1C(=O)NC(C)(c2ccccc2)C1=O (stereo unspecified) > 76.9 µM
COC(=O)CS(=O)(=O)c1ccc2c(c1)CC(=O)N2 > 76.9 µM
O=c1cc(N2CCN(c3ccc(F)cc3)CC2)[nH]c(=O)n1C1CCCCC1 > 76.9 µM
CCC(c1nnnn1Cc1ccco1)N1CCN(C(=O)c2ccco2)CC1 (stereo unspecified) > 76.9 µM
O=S(=O)(NCC1CCCO1)c1cccc(S(=O)(=O)N2CCCC2)c1 (stereo unspecified) > 76.9 µM
CCn1c(SCC(=O)Nc2ccccc2N2CCOCC2)nnc1-c1ccccc1O > 76.9 µM
C1=C(c2ccccc2)Nc2nnnn2C1 > 76.9 µM
Cc1cc(NC(=O)c2ccc(S(=O)(=O)N3CCOCC3)cc2)nc2c1c(=O)oc1ccccc12 > 76.9 µM
CCC(C)n1cnc2c(c1=O)c1nc3ccccc3nc1n2-c1ccc2c(c1)OCCO2 (stereo unspecified)
CC1(C)C2CCC1(C)C(OC(=O)CCn1ccnc1)C2 (stereo unspecified) > 76.9 µM
COc1ccccc1C(=O)N1CCN(c2cccc(Cl)c2)CC1 > 76.9 µM
O=C(CNC(=O)c1ccco1)OC(C(=O)c1ccccc1)c1ccccc1 (stereo unspecified) > 76.9 µM
Cc1nnc(Sc2nc(Sc3nnc(C)s3)nc(N3CCN(C)CC3)n2)s1 > 76.9 µM
Cn1c(=O)c2c(nc(SCc3ccccn3)n2C)n(C)c1=O > 76.9 µM
O=C(c1ccc(NS(=O)(=O)c2cccc3cccnc23)cc1)N1CCOCC1 > 76.9 µM
C=CCn1c(SCC(=O)NCc2ccco2)nc2sc3c(c2c1=O)CCCCC3 > 76.9 µM
CCN(CC)CCOC(=O)C12CC3CC(CC(C3)C1)C2 > 76.9 µM
CCOC(=O)c1[nH]c(C)c(C(=O)Nc2ccc3c(c2)CCC3)c1C > 76.9 µM
CNC(=O)c1cc(S(=O)(=O)N(C)C)ccc1Cl > 76.9 µM
COc1cccc(CNC(=O)C2CCN(S(=O)(=O)c3ccc(F)cc3)CC2)c1 > 76.9 µM
Cn1c(SCC(N)=O)nnc1-c1ccccc1 > 76.9 µM
COc1cccc(N(C(C)=O)c2nc(C)cc(C)c2C#N)c1 > 76.9 µM
CCOC(=O)CNC(=O)CN1CCCN(S(=O)(=O)c2ccc(Br)s2)CC1 > 76.9 µM
CC1(C)CC(=O)C=C(Nc2ccccc2NC(=O)c2cnccn2)C1 > 76.9 µM
CCCS(=O)(=O)N1CCCC(C(=O)NCCCN(Cc2ccccc2)C(C)C)C1 (stereo unspecified) > 76.9 µM
CCCn1c(SC2C(=O)CC(C)(C)CC2=O)nc2c1c(=O)n(C)c(=O)n2C > 76.9 µM
Cc1cccc(-c2cc3nc4c(c(N5CCC6(CC5)OCCO6)n3n2)CCCC4)c1
Cc1ccccc1-n1nc2c(c1NC(=O)c1ccc(S(=O)(=O)N(C)C)cc1)CSC2 > 76.9 µM
Cc1cc(C)nc(N2C(=O)CC(C(=O)O)NC2=NCCc2c[nH]c3ccccc23)n1 (stereo unspecified) > 76.9 µM
O=C(Cc1cccs1)NCc1ccccc1F > 76.9 µM
COc1ccc(C(=O)N2CCN(C3CCCCC3)CC2)c(OC)c1 > 76.9 µM
Cc1cccc(N(C)C(=O)c2cc3cc4ccc(C)cc4nc3o2)c1 > 76.9 µM
CCOc1ccc(-n2cnnn2)cc1S(=O)(=O)NCc1ccccc1 > 76.9 µM
CCCn1c(SCC(=O)Nc2nnc(C)s2)nnc1-c1ccoc1C > 76.9 µM
O=C(NCCCN1CCCC1=O)c1ccccc1NS(=O)(=O)c1ccc(F)cc1 > 76.9 µM
CSc1nc(C)c2cc(C)oc2n1 > 76.9 µM
O=C(CSc1nnc(Cc2ccccc2)o1)Nc1ccc(Br)cn1 > 76.9 µM
O=C(Oc1nsnc1N1CCOCC1)N1CCCCC1 > 76.9 µM
Cc1cc(C(=O)N2CCN(C(=O)C3CCCO3)CC2)no1 (stereo unspecified) > 76.9 µM
CC(=C1C(=O)c2ccccc2C1=O)N1CCc2ccccc2C1 > 76.9 µM
CN(C)CCSc1nnc2sc3ccccc3n12 > 76.9 µM
Cc1ccc(S(=O)(=O)N2CCCN(S(=O)(=O)c3ccc4c(c3)OCCO4)CC2)cc1 > 76.9 µM
Cc1ccc(S(=O)(=O)N2CCC(C(=O)N[C@@H](Cc3ccccc3)C(=O)O)CC2)cc1 > 76.9 µM
COCCn1nnnc1C(c1ccc(OC)cc1OC)N1CCN(c2ccccc2F)CC1 (stereo unspecified) > 76.9 µM
COc1ccc(N2C(=O)C3CCCN3C2c2cccc(C)c2)cc1Cl (stereo unspecified) > 76.9 µM
CC(=O)N(Cc1cccnc1)Cc1cc2ccccc2[nH]c1=O > 76.9 µM
Cc1cccc(-n2nc3c(c2NC(=O)c2ccco2)CSC3)c1C > 76.9 µM
O=C1c2ccccc2C(=O)N1Cc1nc(-c2ccccc2)no1 > 76.9 µM
Cc1nnc(SCC(=O)N(C(C)C)C(C)C)nc1C > 76.9 µM
Clc1ccc(-c2ccc(-c3nn4c(-c5ccco5)nnc4s3)o2)cc1 > 76.9 µM
COc1ccc(CNC(=O)C2CC(=O)N(c3ccc(OCC(=O)N4CCCCC4)cc3)C2)cc1 (stereo unspecified) > 76.9 µM
O=C(Cn1cnc2ccccc2c1=O)c1c[nH]c2ccccc12 > 76.9 µM
Clc1ccccc1-c1nnc2sc(CCc3ccccc3)nn12 > 76.9 µM
COc1cccc(C(=O)Nc2ccc(N(C)C)cc2)c1OC > 76.9 µM
CCOC(=O)Cc1nc2ccccc2[nH]1 > 76.9 µM
CCOC(=O)c1c(C)n(C)c2cc(OCCN(CC)CC)ccc12 > 76.9 µM
Cc1ccc(CNC(=O)c2cn(C3CCCC3)c(=O)c3c2c2ccccc2n3C)o1 > 76.9 µM
Cn1c(=O)[nH]c(=O)c2c1nc(Br)n2CC(O)c1ccccc1 (stereo unspecified) > 76.9 µM
CC(C)NC(=O)CCCc1cn(C)c2ccccc12 > 76.9 µM
CCn1nc(CC(=O)Nc2nnc(CC(=O)N3CCCCC3)s2)c2ccccc2c1=O > 76.9 µM
Cc1cc(Oc2ccccc2)nc(N)n1 > 76.9 µM
COc1cc(OC)c(NC(=O)c2c(-c3ccccc3)noc2C)cc1Cl > 76.9 µM
CCN1CCN(c2ncc(C(=O)N3CCN(c4ccccc4OC)CC3)c3ccccc23)CC1
CCOC(=O)CSc1nnc(Cc2ccccc2)n1CC1CCCO1 (stereo unspecified) > 76.9 µM
Cc1ccc(CN2C(=O)CCC2C(=O)NCCCN2CCCC(C)C2)cc1 (stereo unspecified) > 76.9 µM
C1CCN(c2nc(N3CCCCC3)nc(N3CCNCC3)n2)CC1 > 76.9 µM
O=C(NCC1CCCO1)C1CCN(S(=O)(=O)N2CCCC2)CC1 (stereo unspecified) > 76.9 µM
Cc1cccc(N2CCN(C(=O)C3CCN(S(=O)(=O)c4cnc[nH]4)CC3)CC2)c1C > 76.9 µM
CCC(C)(C)NC(=O)C(c1ccc(F)cc1)N(Cc1ccco1)C(=O)c1snc(C(N)=O)c1N (stereo unspecified) > 76.9 µM
Cc1nnc(NC(=O)CCC(=O)NCc2ccco2)s1 > 76.9 µM
Cc1ccc2c(c1)N(CC(=O)N1CCCCCC1)C(=O)CO2 > 76.9 µM
CC(C)Cc1nc2oc3c(NCc4cccnc4)ncnc3c2c2c1CCC2 > 76.9 µM
CCOc1cc(S(=O)(=O)Nc2ccc(Cl)cn2)ccc1F > 76.9 µM
O=C(O)CC1(c2ccccc2)C(=O)c2ccccc2C1=O > 76.9 µM
COc1ccc(CN2CC(C(=O)NCCCN3CCCCCC3)CC2=O)cc1 (stereo unspecified) > 76.9 µM
